Experimental data from PubChem BioAssay AID686978 (National Center for Advancing Translational Sciences (NCATS), 2013).
Among all 420,000 compounds or so, about 64,000 (15%) were called active. The shares of active, inactive and inconclusive entries below differ from those in the screen. Calls come from the whole dose curve; as a rule, active = well fitted inhibition curve with a large enough effect; inconclusive = small, poorly fitted or top-dose-only effect; inactive = flat fitted curve, though single readings scatter. Potencies of inconclusive entries are left out as doubtful fits. The source holds several records for some structures; these can differ, active in one and inactive in another.

Experiment: qHTS for Inhibitors of human tyrosyl-DNA phosphodiesterase 1 (TDP1): qHTS in cells in absence of CPT; note: nearly all actives have a fitted effect of over 55% in size
Conditions: DT40 Tdp1-/- hTDP1 cells, no CPT, ATP luminescence, 48 h; activity change, negative = growth inhibition: at 46.2 µM (top of the series)
Method in brief: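 Readout: luminescence from CellTiter-Glo after 30 min in the dark at RT. Cells: DT40 Tdp1-/- with stable hTDP1, 400/well. Exposure: compounds alone, ≥48 hr, 37 °C.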
% is set by controls: 0 for no effect and ±100 for the full control effect; potency is the fitted concentration of half-maximal effect; tags give direction and shape of the fitted curve.

| Structure (SMILES) | Potency | activity change, negative = growth inhibition |
| --- | --- | --- |
| C=C(C)C(O)COc1c2occc2c(OC)c2ccc(=O)oc12 (centres undefined) | inconclusive [inhibitor, single point] |  |
| CN(CC(=O)Nc1ccc(N2CCOCC2)cc1)C(=O)CCCOc1ccc(Cl)cc1Cl | inconclusive [inhibitor, single point] |  |
| CC(C)[C@@H]1NC(=O)N(c2ccc(Oc3ccccc3)cc2)C1=O | inconclusive [inhibitor, single point] |  |
| C/C(=N\Nc1nc(-c2ccccc2)cs1)c1cccs1 | inconclusive [inhibitor, single point] |  |
| CNC(=S)Nc1ccc(-c2nc3ccc(C)cc3s2)cc1 | inconclusive [inhibitor, single point] |  |
| C[N+]1(CC(=O)OC2CCCCCCCCCCC2)CCCC1 | active: 2.59 µM |  |
| COc1ccccc1C(=O)Nc1ccc2c(c1)nc1n2CCN(C2CCCCC2)C1 | active: 23.1 µM |  |
| CCC1CN(CCNC(=O)c2ccc(C#CC(C)(C)O)cc2)Cc2cc(OC)ccc2O1 (centres undefined) | inconclusive [inhibitor, partial curve] |  |
| CCc1ccc(N(C(C)=O)c2nc(CCl)cs2)cc1 | active: 10.3 µM |  |
| COc1ccc(OC)c2sc(NC(=O)CCS(=O)(=O)c3ccccc3)nc12 | active: 4.61 µM |  |
| CC1=C(C(=O)OCC2CCCO2)C(c2ccsc2)C2=C(CC(C)(C)CC2=O)N1 (centres undefined) | inconclusive [inhibitor, single point] |  |
| COc1ccccc1Cc1c(C2CCCCC2)nc2c3ccccc3ccn12 | inconclusive [inhibitor, partial curve, poor fit] |  |
| O=C(CNCc1ccc(F)cc1)Nc1cc(S(=O)(=O)N2CCOCC2)ccc1Cl | inconclusive [inhibitor, single point] |  |
| O=C(COC(=O)c1cncc(Br)c1)NC1CCCCCC1 | inactive |  |
| O=C(Cc1ccc([N+](=O)[O-])cc1)Nc1cccc(C(=O)N2CCCC2)c1 |  | inconclusive: -32.3% [inhibitor] |
| COCCNC(=S)N1CCN(c2nc(-c3cccc(OC)c3)cs2)CC1 | inconclusive [inhibitor, single point] |  |
| CCOCCn1c(CN2CCN(C(c3ccccc3)c3ccccc3)CC2)nc2c1c(=O)n(C)c(=O)n2C | inconclusive [inhibitor, full curve, poor fit] |  |
| O=C(Cn1c(=O)oc2cc(S(=O)(=O)NCc3ccccc3)ccc21)N(CCO)Cc1ccccc1 | active: 14.6 µM |  |
| CC(C)C[C@H]1CN([C@@H](Cc2ccccc2)CN2CCC[C@@H]2CN2C(=O)C(=O)NC[C@@H]2Cc2ccccc2)C(=O)C(=O)N1CC1CCCCC1 | active: 16.4 µM |  |
| COc1ccc2c(=O)cc(-c3ccccc3F)oc2c1 | active: 20.6 µM |  |
| Cc1ccc(N2C(=O)c3ccccc3C2Nc2ccc(S(=O)(=O)N3CCCCC3)cc2)nc1 (centres undefined) | inconclusive [inhibitor, single point] |  |
| CCOc1ncccc1C(=O)OCC(=O)NCc1ccccc1 | inactive |  |
| CN(C)S(=O)(=O)c1cccc(NC(=O)CCSc2ccc(Cl)cc2)c1 | inconclusive [inhibitor, single point] |  |

| Structure (SMILES) | Potency | activity change, negative = growth inhibition |
| --- | --- | --- |
| COc1cccc(CNC(=O)CCC2CCCN(C(=O)c3cc4ccccc4o3)C2)c1 (centres undefined) | active: 13 µM |  |
| COCCN1C(=O)/C(=C/c2ccc(Oc3ccc([N+](=O)[O-])cn3)c(OC)c2)SC1=Nc1ccccc1 | inconclusive [inhibitor, single point] |  |
| O=C(c1cc2cc([N+](=O)[O-])ccc2s1)N1CCCCC1 | inconclusive [inhibitor, partial curve, poor fit] |  |
| COc1ccc(OC)c(NC(=O)c2nc(SCc3ccccc3F)ncc2Cl)c1 | active: 14.1 µM |  |
| Cc1cc(=O)oc2cc(NC(=O)CCCC(=O)O)ccc12 | inactive |  |
| CCN(CCn1cccn1)C(=O)c1ccc(OC2CCN(C(=O)CCOC)CC2)cc1 | inactive |  |
| CCCCN(CC)c1nc(N)c(C#N)c(CC#N)c1C#N | inconclusive [inhibitor, partial curve] |  |
| O[C@@H]1CN(Cc2cccs2)[C@@H](c2ccc(Cl)cc2)C[C@H]1n1cc(-c2ccc(F)cc2)nn1 | active: 23.1 µM |  |
| O=C(O)CCCC(=O)N1CCN(c2nc(-c3ccccc3)c3ccccc3n2)CC1 | inconclusive [inhibitor, single point] |  |
| CCOC(=O)N1CCC(NC(=O)CCC(=O)N2CCOc3ccc(Cl)cc32)CC1 | inconclusive [inhibitor, single point] |  |
| O=C(Cc1ccc(Cl)cc1)Nc1ccc(S(=O)(=O)Nc2cnc3ccccc3n2)cc1 | inactive |  |
| CN(C(=O)COC(=O)CNC(=O)CNC(=O)c1ccc(Cl)cc1Cl)c1ccccc1 | inconclusive [inhibitor, single point] |  |
| COc1ncc2nc(C)c(=O)n(CCc3ccccc3)c2n1 | inconclusive [inhibitor, single point] |  |
| CCOc1ccc(NS(=O)(=O)c2ccc3c(c2)N(C(C)=O)CC3)cc1 | inconclusive [inhibitor, full curve] |  |
| COc1ccc(CN(C(=O)c2ccc(-c3ccccc3)[nH]2)C(C(=O)NCC2CCCO2)c2ccc(C)o2)cc1 (centres undefined) | inconclusive [inhibitor, partial curve, poor fit] |  |
| Cc1cccc(Nc2nc(-c3ccccc3)cs2)n1 | inconclusive [inhibitor, single point] |  |
| Cc1ncc([N+](=O)[O-])n1CC(=O)Nc1ccccc1Cl | inactive |  |
| Cc1ccc(S(=O)(=O)/N=C(\Nc2cccc(C)c2)Nc2nc(C)cc(C)n2)cc1 | inconclusive [inhibitor, partial curve] |  |
| CN(C)C(CNc1ncnc2ccccc12)c1c(F)cccc1Cl (centres undefined) | inconclusive [inhibitor, partial curve] |  |
| Cn1c2nc(=O)[nH]c(=O)c-2cc2ccccc21 | inactive |  |
| COc1cccc2c1C(=O)CC(c1ccccc1)O2 (centres undefined) | inconclusive [inhibitor, partial curve] |  |
| COc1cccc(C(=O)NCC(C)(C)SCc2ccc(F)cc2)c1 | inconclusive [inhibitor, single point] |  |
| O=C(CN1Cc2ccccc2OC(c2ccsc2)C1)N1CCN(Cc2ccc3c(c2)OCO3)CC1 (centres undefined) | active: 23.1 µM |  |

| Structure (SMILES) | Potency | activity change, negative = growth inhibition |
| --- | --- | --- |
| Cc1noc(C)c1COc1ccc(C(=O)N2CCN(c3ccccc3F)CC2)cc1 | inconclusive [inhibitor, single point] |  |
| Fc1ccc(OCc2nnc(SCCN3CCOCC3)o2)cc1 | inactive |  |
| Cc1ccc2oc(C(=O)Nc3sc4c(c3C(=O)NCc3ccccc3)CCCC4)cc(=O)c2c1 | inconclusive [inhibitor, full curve, poor fit] |  |
| CCc1ccccc1NC(=O)C1=CN2CCS(=O)(=O)N=C2C=C1 | inactive |  |
| O=C(N/N=C/c1c(O)ccc2ccccc12)c1cccc(C(F)(F)F)c1 | active: 1.03 µM |  |
| CCC1CN(C(=O)Nc2cc(OC)cc(OC)c2)c2ccccc2S1 (centres undefined) | inconclusive [inhibitor, single point] |  |
| Cc1ccccc1C(=O)Nc1ccc(Cl)cn1 | active: 20.6 µM |  |
| CC(=O)N1CCCc2cc(S(=O)(=O)N(CC(C)C)CC(C)C)ccc21 | inconclusive [inhibitor, single point] |  |
| CCCOc1ccc2c3c(c(=O)oc2c1)CCCC3 | inconclusive [inhibitor, single point] |  |
| CCc1cc2cc(C)cc(C)c2nc1SCC(=O)NNC(=O)c1ccco1 | inconclusive [inhibitor, single point] |  |
| COC(=O)CC(c1ccc(F)cc1)n1c(C)ccc1C (centres undefined) |  | inconclusive: 1.59% [inhibitor] |
| CS/C(N)=N/N=C/c1cc(C)ccc1O | inconclusive [inhibitor, single point] |  |
| CCN1CCN(C(=S)c2ccc(OCC(=O)Nc3ccc(OC)cc3)cc2)CC1 | inconclusive [inhibitor, single point] |  |
| O=C(COC(=O)c1ccc(S(=O)(=O)N2CCCC2)cc1)NCc1cccs1 | inactive |  |
| Cc1ccc(C(=O)COC(=O)c2cn3ccccc3n2)cc1 | inactive |  |
| Cn1cc(CN2CCC(C(O)c3cccs3)CC2)c(-c2cccc(Cl)c2)n1 (centres undefined) | inactive |  |
| C[C@H]1CN([C@@H](C)CO)S(=O)(=O)c2ccc(Br)cc2O[C@H]1CN(C)Cc1ccc(F)cc1 | inconclusive [inhibitor, single point] |  |
| CCN1C(=O)/C(=C2/C(=O)N3c4c(cc(OC(C)=O)cc42)C(C)=CC3(C)C)SC1=S | inconclusive [inhibitor, single point] |  |
| Cc1ccc(OCC(=O)OCc2cc(=O)n3c(C)csc3n2)cc1 | inactive |  |
| O=C(NCC(c1ccco1)N1CCCC1)c1cccc(NS(=O)(=O)c2ccccc2)c1 (centres undefined) | inconclusive [inhibitor, single point] |  |
| O=C(CN1CCN(S(=O)(=O)c2ccc(F)cc2)CC1)Nc1ccccc1C(=O)NC1CC1 | inconclusive [inhibitor, single point] |  |
| CCC1CCCCN1C(=O)c1ccc(OC2CCN(C(=O)C3CC3)CC2)cc1 (centres undefined) | inconclusive [inhibitor, single point] |  |
| COc1cc(CNc2ncnc3c2ncn3[C@H]2CN(Cc3cccs3)C[C@@H](CO)O2)cc(OC)c1OC | inconclusive [inhibitor, single point] |  |
